In all, about 150,000 compounds went through this assay and about 540 (0.36%) showed an effect of 50% or more. Some of the results follow.
System: Plasmodium falciparum
Test: Primary screen in NF54 nanoGlo assay, in single point, at 2uM, 72h; a lower Z score goes with more inhibition
Format: functional, Erythrocyte
Conditions: timepoint 72 hour

| Structure (SMILES) | % Inhibition [%] | Z score |
| --- | --- | --- |
| Cc1nc[nH]c1-c1c(-c2ccccc2)ncn1Cc1cc(CC(C)C)no1 | 12 | -1.6 |
| C=CCn1ncc2c(=O)[nH]c(NCC3(N(C)C)CCCC3)nc21 | 22 | -2.85 |
| OC(c1ccccc1)(c1ccccc1)[C@@H]1CCCN1Cc1ccccc1 | 8 | -1.62 |
| Cn1cc([C@@H](NC(=O)c2cccc(-c3ncc[nH]3)c2)C2CC(O)C2)cn1 (stereo partly specified) | -4 | 0.79 |
| Cc1cc(OC(=O)c2ccccc2)c(C(C)C)cc1NC1=NS(=O)(=O)c2ccccc21 | -8 | 1.07 |
| O=C(Nc1cc(S(=O)(=O)Nc2ccc(Cl)cc2)ccc1N1CCCC1)c1ccc(F)cc1F | -9 | 1.18 |
| O=C(c1cn2cc(Cl)ccc2n1)N1CCCN([C@H]2COC[C@@H]2O)CC1 | -2 | 0.15 |
| CNC(=O)CN1CCC(NC(=O)N2CCN(c3ccccc3F)C[C@@H]2C)CC1 | 1 | -0.11 |
| Cc1nn(C)c2nc(N[C@H](c3nccn3C)C3CC3)sc12 | -6 | 1.26 |
| Nc1nc(N)nc(Cn2cc(C(F)(F)F)ccc2=O)n1 | 9 | -1.22 |
| CC(C)(C)c1cnc(Cn2nc(C(F)(F)F)ccc2=O)o1 | -14 | 1.25 |
| Cc1ccc(O)c(NC(=O)[C@H](C)OCC(F)(F)F)c1 | -7 | 0.85 |
| COc1cc(C(=O)N[C@@H]2COCC[C@@H]2Oc2ccccc2)ccn1 | -5 | 0.96 |
| CCOc1ccc(CCN2C(=O)CC[C@@]2(C)C(=O)NC2CCCCCC2)cc1OCC | -8 | 1.14 |
| COCCN(C)C[C@@H]1CN(C(=O)Cc2c(C)[nH]c3c(C)ccc(C)c23)C[C@@H]1CO | 3 | -0.43 |
| COc1ccc(C2C(C)C3(O)CC(C#N)(C(=O)N3)C2(C#N)C#N)cc1 (stereo unspecified) | -8 | 0.97 |
| O=C(C1CCC(C(F)(F)F)C1)N1CCC2(CCC2)C1 (stereo unspecified) | -8 | 1.52 |
| Cn1nccc1C(=O)N[C@@H]1C[C@H]1c1ccc(Cl)cc1Cl | 3 | -0.44 |
| O=C(Cn1cccn1)NC[C@H](Cc1ccc2ccccc2c1)C(=O)O | -2 | 0.31 |
| CCNC(=O)N1CCC(c2nc(C)ccc2C(=O)N(C)C2CCCCC2)CC1 | -9 | 1.16 |
| CC(C)c1ccccc1OC[C@@H](O)CN1CCOC2(CCC2)C1 | 1 | -0.07 |
| CCc1ccc([C@@H]2CN(C(=O)c3c[nH]c(=O)cc3OC)CCO2)cc1 | -15 | 1.71 |
| NC(=NC[C@H]1CCc2ccccc21)N1CCOCC1 | -13 | 1.87 |
| CCC1(CC)CCCN(C(=O)Nc2ccn(C(C)C)n2)CC1 | -10 | 0.98 |
| CC[C@H]1CCCN(C(=O)CC2(CS(C)(=O)=O)CC2)CC1 | -13 | 1.33 |
| O=S(=O)(Oc1ccc2ccccc2c1)c1cccc2cccnc12 | -3 | 0.39 |
| Cc1cc2c(C)c(C(=O)N3CCCCCC3)oc2c(S(=O)(=O)NCCCN2CCOCC2)c1C | -15 | 1.78 |

| Structure (SMILES) | % Inhibition [%] | Z score |
| --- | --- | --- |
| CC[C@H]1CN(C(=O)CCc2cccn2C)CCO1 | -9 | 1.49 |
| O=C(c1ccco1)N1CCN(C(c2ccccc2)c2ccccc2)CC1 | 0 | 0.07 |
| CCOc1ccc(N2Cc3cccc(OCC)c3OCC2=O)cc1 | -8 | 1.07 |
| CCCn1nnnc1Cn1ncn(C)c1=O | -3 | 0.52 |
| Cc1ccc(C)c(NS(=O)(=O)c2cc(-c3ccc(=O)[nH]n3)ccc2C)c1 | -23 | 2.07 |
| CCc1nnsc1C(=O)N1CCC2(CC1)NC(=O)NC2=O | -10 | 1.3 |
| Cn1ccnc1[C@@H](O)c1cc2n(n1)CCN(c1cccc(C#N)n1)C2 | -7 | 1.02 |
| CC(C)CN1CCN(S(=O)(=O)N2CCN(C)CC2)CC1 | -13 | 2.35 |
| CCOC(=O)N1CCC(n2cnc3cccnc3c2=O)CC1 | 4 | -0.57 |
| CCOc1ccc(N(C)CCN2CCCC2=O)nn1 | 4 | -0.49 |
| CC(C)=C1C2CCC1C(C(=O)NCCc1ccccc1)C2C(=O)O (stereo unspecified) | -4 | 0.5 |
| NC(=O)c1ccn(-c2cccc(NS(=O)(=O)c3ccc(C(=O)NCC(F)(F)F)cc3)c2)n1 | 8 | -1.5 |
| CCc1cc(=O)c2cc(NS(=O)(=O)c3cccc(COC)c3)ccc2[nH]1 | 0 | -0.03 |
| CC1=CC(C)C(C2OCCN2CC2COC3(CCCCC3)O2)C(C)C1 (stereo unspecified) | 3 | -0.51 |
| Cc1cc(C)n(Cc2c(C(=O)N3CCCCC3)noc2C)n1 | 4 | -0.43 |
| Cc1ccc2c(c1)N(C)C(=O)c1cc(NC(=O)C3CCN(S(C)(=O)=O)CC3)ccc1O2 | -9 | 1.36 |
| Cc1noc(C)c1CN1CC2(CCN(C(=O)[C@H]3CCCO3)CC2)CC1=O | -20 | 2.38 |
| O=C1NC(=O)C2(CCN(C(=O)c3cn4ccccc4n3)CC2)N1 | -12 | 2.32 |
| COc1ccc(-c2nc(N3CCCCC3)nc3nn4c(C)cc(C)nc4c23)cc1 | -10 | 1.62 |
| COC1CC2C(=O)N(C3CCN(c4ccc(Cl)cc4)C3)C(=O)N2C1 (stereo unspecified) | -11 | 1.65 |
| CC(C)(CC(=O)N[C@@]1(C)CCS(=O)(=O)C1)C(F)(F)F | -15 | 1.3 |
| CC(C)(C)OC(=O)NCCCN1Cc2ccccc2C1 | -2 | 0.27 |
| Cc1cc(CN(C)C(=O)C[C@@H](c2cccc(O)c2)c2ccccc2Cl)on1 | -14 | 1.64 |
| CC(C)c1noc([C@H](C)N2CCCC2)n1 | 3 | -0.4 |
| c1sc(C2CC2)nc1CN1CCC(=C2CC2)CC1 | -11 | 1.82 |
| CCCc1noc(CN(C)[C@H]2CS(=O)(=O)c3ccccc32)n1 | -13 | 1.51 |

From ChEMBL document CHEMBL4888484, “Replenishing the malaria drug discovery pipeline: Screening and hit evaluation of the MMV Hit Generation Library 1 (HGL1) against asexual blood stage Plasmodium falciparum ,using a nano luciferase reporter read-out” (2022)
